Experimental findings from patent US20230272055A1, “ANTI-MUTANT CALRETICULIN (CALR) ANTIBODIES AND USES THEREOF” (Incyte Corporation, priority 2021, published 2023) are described below.

B1: 8 (antibody)
heavy: QVQLVQSGAEVKKPGSSVKVSCKVSGYTLTELSMQWVRQAPGKGLEWMGGFDPDDGETMYAEKFQGRLTVTEDTSTDTVYMELRSLTSEDTALYFCATSPGYDFFDYWGQGTLVTVSSASTKGPSVFPLAPSSKSTSGGTAALGCLVKDYFPEPVTVSWNSGALTSGVHTFPAVLQSSGLYSLSSVVTVPSSSLGTQTYICNVNHKPSNTKVDKRV[omitted - human IgG1 Fc]
light: SYELTQPPSVSVAPGQTARITCGGNNIGSKSVHWYQQKPGQAPVLVVYDDSDRPSGIPERFSGSNSGRTATLTISRVEAGDEADYHCQVWDSSSDHLVFGGGTKLTVLGQPKAAPSVTLFPPSSEELQANKATLVCLISDFYPGAVTVAWKADSSPVKAGVETTTPSKQSNNKYAASSYLSLTPEQWKSHRSYSCQVTHEGSTVEKTVAPTECS
B2: 24 (antibody)
heavy: B1 heavy with Q1E, S16A, F64L
light: B1 light with E3V, Q16K, R68N, S75N, H86Y, S94N, H96L, V98I
B3: 16 (antibody)
heavy: B1 heavy with Q1E, S16A
light: B1 light with E3V, Q16K, I27T, R68N, S75N, H86Y, S94N, H96L, V98I
B4: 26 (antibody)
heavy: B1 heavy with Q1E, S16A
light: B1 light with E3V, R68N, H86Y, S94I, V98I, L105V
B5: 27 (antibody)
heavy: B1 heavy with Q1E, S16A
light: B1 light with E3V, S29I, S51R, R68N, S75N, H86Y, S94N, H96L, V98I
B6: 28 (antibody)
heavy: B1 heavy with Q1E, S16A
light: B1 light with R68N, H86Y, S92A, S93D, H96Q, V98I
B7: 12 (antibody)
heavy: B1 heavy with Q1E, S16A, D55G
light: SYVLTQPPSVSVAPGQTARVSCGGNNIGSKSVNWYRQKPGQAPVLVIYDDSDRPSGIPERFSGSNSGNTATLTINRVEAGDEADYYCQVWDSSNDLLIFGGGTKLTVLGQPKAAPSVTLFPPSSEELQANKATLVCLISDFYPGAVTVAWKADSSPVKAGVETTTPSKQSNNKYAASSYLSLTPEQWKSHRSYSCQVTHEGSTVEKTVAPTECS
B8: 11 (antibody)
heavy: B1 heavy with Q1E, Q3R, S16A
light: QSALTQPRSVSGSPGQSVTISCTGTSSDVGGYNYVSWYQQHPGKAPKLMIYDVSKRPSGVPDRFSGSNSGNTATLTINRVEAGDEADYYCQVWDSSNDLLIFGGGTKLTVLGQPKAAPSVTLFPPSSEELQANKATLVCLISDFYPGAVTVAWKADSSPVKAGVETTTPSKQSNNKYAASSYLSLTPEQWKSHRSYSCQVTHEGSTVEKTVAPTECS
B9: 21 (antibody)
heavy: B1 heavy with Q1E, S16A, K23E
light: B7 light with N75S
B10: 29 (antibody)
heavy: B1 heavy with Q1E, S16A
light: B1 light with E3V, Q16K, R68N, H86Y, H96L, V98I, T103A
B11: 30 (antibody)
heavy: B1 heavy with Q1E, S16A
light: B7 light with Q16K, R19T, V20I, S21T, S29T, N33H, R36Q, I47V
B12: 25 (antibody)
heavy: B1 heavy with Q1E, S16A
light: B1 light with S11A, S29R, S31A, R68N, S75N, H86Y, S94N, H96L, V98I
B13: 50 (antibody)
heavy: QMQLVQSGAEVKKPGSSVKVSCKASGGTFSSYAISWVRQAPGQGLEWMGGIIPIFGTANYAQKFQGRVTITADESTSTAYMELSSLRSEDTAVYYCASSPLRGSGWYWHYYYGMDVWGQGTTVTVSSASTKGPSVFPLAPSSKSTSGGTAALGCLVKDYFPEPVTVSWNSGALTSGVHTFPAVLQSSGLYSLSSVVTVPSSSLGTQTYICNVNHKPSNTKVDKRV[omitted - human IgG1 Fc]
light: SYVLTQPPSVSVAPGKTARITCGGNNIGTKSVHWYQQKPGQSPVLVIYQDRKRPSGIPERFSGSNSGNTATLTISGTQAMDEADYYCQVWDSSTEVFGGGTKLTVLGQPKAAPSVTLFPPSSEELQANKATLVCLISDFYPGAVTVAWKADSSPVKAGVETTTPSKQSNNKYAASSYLSLTPEQWKSHRSYSCQVTHEGSTVEKTVAPTECS

Where a chain is given by its changes, count along the chain named.

For one experiment, the target named is T1, recombinant MBP-mutCALR Type 1 fusion protein (Homo sapiens, UniProt P27797, DEL40-40).
T1 construct: His6 (N); purchased Cepter (cepterbiopartners.com), custom made
In words: Biacore SPR binding kinetics, Experiment 1. The settings on record: Biacore 8K, 25° C., 1:1 binding model. The protocol: The amino acid sequence of recombinant MBP-mutCALR Type 1 fusion protein used in Experiments 1 and 2 is:
Experiment 1: Recombinant MBP-mutCALR Type 1 fusion protein was custom made at Cepter (cepterbiopartners.com). Data for the interaction of antibodies with recombinant MBP-mutCALR Type 1 fusion protein were collected at 25° C. on a Biacore 8K instrument (Cytiva, Marlborough, Mass.), and all reagents were obtained from Cytiva unless otherwise specified. The experiments were conducted using Tris-buffered saline (pH 7.2), 0.005% Surfactant P20, 1 mM CaCl2) as running buffer. To prepare the capture surfaces, anti-human IgG (Fc) antibodies (Product #29234600) was amine-coupled onto a CM4 chip (Product #BR100534) under standard conditions using an Amine Coupling Kit (Product #BR100050). Anti-mutCALR antibodies were captured onto the chip surface by injecting over flow cell 2 only at a flow rate of 30 μL/min for 30 seconds. […] The kinetics parameters were obtained by applying 1:1 binding model to fit the data from multiple-cycle injection experiments using Biacore Insight Evaluation software.
For orientation: Surface plasmon resonance follows binding to a sensor surface in real time, without labels.
For the molecule B1, the “ka” value stood at 1.75e+06 M⁻¹ s⁻¹ and the “kd” value worked out at 0.00802 s⁻¹.

B2: the “ka” value came to 261000 M⁻¹ s⁻¹ and the “kd” value is 0.00199 s⁻¹.

For B3, the “ka” value was 2.84e+06 M⁻¹ s⁻¹ and the “kd” value amounted to 0.0354 s⁻¹.

With B4, the “ka” value came out at 478000 M⁻¹ s⁻¹ and the “kd” value was determined as 0.00471 s⁻¹.

Turning to B5, the “ka” value worked out at 380000 M⁻¹ s⁻¹ and the “kd” value came to 0.00366 s⁻¹.

For B6, the “ka” value was 460000 M⁻¹ s⁻¹ and the “kd” value was found to be 0.00897 s⁻¹.

With B7, the “ka” value came out at 589000 M⁻¹ s⁻¹ and the “kd” value was determined as 0.0024 s⁻¹.

With B8, the “ka” value was determined as 514000 M⁻¹ s⁻¹ and the “kd” value worked out at 0.00524 s⁻¹.

With B9, the “ka” value is 2.57e+06 M⁻¹ s⁻¹ and the “kd” value stood at 0.00664 s⁻¹.

In the case of B10, the “ka” value is 688000 M⁻¹ s⁻¹ and the “kd” value came out at 0.00561 s⁻¹.

Turning to B11, the “ka” value amounted to 231000 M⁻¹ s⁻¹ and the “kd” value came out at 0.00295 s⁻¹.

Take B12: the “ka” value was determined as 585000 M⁻¹ s⁻¹ and the “kd” value is 0.00389 s⁻¹.

As for B13, the “ka” value is 249000 M⁻¹ s⁻¹ and the “kd” value turned out to be 0.00104 s⁻¹.

A further experiment relates to MPL-mutCALR cells (BaF3 cells stably expressing human MPL and human mutCALR). As to the kind of experiment: Flow cytometry binding to cell surface MPL and mutCALR (GMFI, four parameter fit). The settings on record: four parameter curve fitting. The protocol:
To assess binding of CALR antibodies to cell surface CALR, parental BaF3 (DSMZ) cells or BaF3 cells stably expressing only human MPL or both human MPL (Uniprot Number: P40238-1) and human mutCALR Type 1 and Type 2 were used. On the day of the assay, cells were washed and resuspended in assay buffer. Approximately 200,000 cells/well were added to 96-well plates and stained with the indicated concentration of antibodies for 30 minutes on ice. Cells were then washed and stained with goat anti-human secondary conjugated to R-phycoerythrin (R-PE) (Jackson Immuno Research Laboratories) for 30 minutes on ice. The cells were then washed and analyzed by flow cytometry. Geometric Mean Fluorescence Intensity (GMFI) of cell binding was graphed and EC50, hill slope, and area under the curve (AUC) were determined after four parameter curve fitting using GraphPad Prism Software (version 7.04).
Turning to B1, the “MPL-mutCALR Hill Slope” value amounted to 0.27.

For B2, the “MPL-mutCALR Hill Slope” value is 0.41.

Consider B3, for which the “MPL-mutCALR Hill Slope” value came to 0.35.

For the molecule B4, the “MPL-mutCALR Hill Slope” value is recorded as 0.46.

In the case of B5, the “MPL-mutCALR Hill Slope” value is 0.28.

Turning to B6, the “MPL-mutCALR Hill Slope” value came to 0.37.

As to B7, the “MPL-mutCALR Hill Slope” value is reported as 0.46.

For the molecule B8, the “MPL-mutCALR Hill Slope” value stood at 0.31.

As for B9, the “MPL-mutCALR Hill Slope” value is listed as 0.22.

As for B10, the “MPL-mutCALR Hill Slope” value was determined as 0.39.

As for B11, the “MPL-mutCALR Hill Slope” value is given as 0.28.

Regarding B12, the “MPL-mutCALR Hill Slope” value is recorded as 0.36.

For B13, the “MPL-mutCALR Hill Slope” value was determined as 1.73.

The test system of another experiment is Ba/F3 cells transfected with MPL and mutCALR Type 1. As to the kind of experiment: Inhibition of cell proliferation, CellTiter-Glo 72 hours, mutCALR Type 1. Particulars: Ba/F3 engineered cells, high-throughput primary screening. The format is cell-based. The method, then:
To test the ability of anti-mutCALR antibodies to inhibit cell proliferation, engineered Ba/F3 cells transfected with MPL and mutCALR Type 1 were plated at 5,000 cells per well in RPMI 1640+2% FBS, antibodies added, incubated for 72 hours, and followed by assessment of cell viability using the CellTiter-Glo Luminescent Cell Viability Assay (Promega, Madison, Wis.) and Top Count (Perkin Elmer, Boston, Mass.) or Pherastar (BMG Labtech, Ortenberg, Germany) for luminescence quantification. Anti-mutCALR antibodies inhibit mutCALR-induced oncogenic cell proliferation in a dose-dependent manner in both the Ba/F3 engineered cells (FIG. 2).
To test the ability of anti-mutCALR antibodies to inhibit oncogenic cell proliferation triggered by the Type 1 and Type 2 CALR mutations, Ba/F3 cells (DSMZ) were engineered to express MPL+mutCALR Type 1 (52 bp deletion, SEQ ID NO:320) or MPL+mutCALR Type 2 (5 bp insertion; SEQ ID NO:321). Cells were plated at 5,000 cells per well in RPMI 1640+2% FBS, antibodies added, incubated for 72 hours, and followed by assessment of cell viability using the CellTiter-Glo Luminescent Cell Viability Assay (Promega, Madison, Wis.) and Top Count (Perkin Elmer, Boston, Mass.) or Pherastar (BMG Labtech, Ortenberg, Germany) for luminescence quantification. Anti-mutant CALR antibodies show potency to inhibit mutCALR-induced oncogenic cell proliferation associated with both Type 1 and Type 2 mutations (FIG. 3).
In general terms: ATP-based viability assays read luminescence as a measure of living cells.
B1: the “IC50 inhibition of cell proliferation” value came to 6.7 ng/mL.

For B2, the “IC50 inhibition of cell proliferation” value is 4.5 ng/mL.

For B3, the “IC50 inhibition of cell proliferation” value is 31.5 ng/mL.

On to B4, for which the “IC50 inhibition of cell proliferation” value was 109.4 ng/mL.

Consider B5, for which the “IC50 inhibition of cell proliferation” value was 4 ng/mL.

Consider B6, for which the “IC50 inhibition of cell proliferation” value turned out to be 6.8 ng/mL.

Consider B7, for which the “IC50 inhibition of cell proliferation” value came to 4.3 ng/mL.

Take B8: the “IC50 inhibition of cell proliferation” value was 10.4 ng/mL.

As to B9, the “IC50 inhibition of cell proliferation” value is around 9.274 ng/mL.

As for B10, the “IC50 inhibition of cell proliferation” value was around 2.898 ng/mL.

For the molecule B11, the “IC50 inhibition of cell proliferation” value is 11.3 ng/mL.

Regarding B12, the “IC50 inhibition of cell proliferation” value was 3.5 ng/mL.

Regarding B13, the “IC50 inhibition of cell proliferation” value worked out at 1212 ng/mL.
